{"source": "the supplement of paper PMC3334620", "note": "The full ranking holds about 33,000 sequences; the median of “E-score (-0.5 to 0.5)” is about -0.021, and the highest 2% start at about 0.32. The list shows a part of the results."}
{"biological_target": "T1, Zap1 (UniProt P47043)", "T1 sequence": "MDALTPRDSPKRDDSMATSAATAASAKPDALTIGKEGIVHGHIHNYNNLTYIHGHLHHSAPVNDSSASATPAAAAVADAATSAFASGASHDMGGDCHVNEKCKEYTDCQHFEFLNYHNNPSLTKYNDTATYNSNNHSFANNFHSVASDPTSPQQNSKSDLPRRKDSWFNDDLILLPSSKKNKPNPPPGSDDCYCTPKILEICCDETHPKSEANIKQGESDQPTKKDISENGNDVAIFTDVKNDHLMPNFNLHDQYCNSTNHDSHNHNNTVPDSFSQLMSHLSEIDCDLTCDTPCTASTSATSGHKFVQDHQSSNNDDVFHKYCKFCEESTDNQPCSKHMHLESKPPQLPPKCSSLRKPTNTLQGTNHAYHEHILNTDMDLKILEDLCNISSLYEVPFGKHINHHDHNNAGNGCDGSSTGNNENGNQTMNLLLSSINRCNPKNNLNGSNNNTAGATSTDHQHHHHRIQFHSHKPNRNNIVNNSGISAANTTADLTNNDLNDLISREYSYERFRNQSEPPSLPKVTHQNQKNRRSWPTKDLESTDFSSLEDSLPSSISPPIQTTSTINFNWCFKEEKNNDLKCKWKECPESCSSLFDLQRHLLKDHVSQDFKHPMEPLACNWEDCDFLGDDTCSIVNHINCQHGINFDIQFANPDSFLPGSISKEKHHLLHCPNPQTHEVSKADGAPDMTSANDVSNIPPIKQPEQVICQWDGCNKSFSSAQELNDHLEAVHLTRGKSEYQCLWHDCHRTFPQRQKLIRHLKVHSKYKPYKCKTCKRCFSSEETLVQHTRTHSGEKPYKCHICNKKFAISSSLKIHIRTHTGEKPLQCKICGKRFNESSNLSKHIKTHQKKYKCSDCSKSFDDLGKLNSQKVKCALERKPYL", "assay": "PBM E-score (8-mer binding enrichment) (E-score (-0.5 to 0.5)); higher = stronger / more preferred TF binding; most listed sequences are background and not binding sites", "conditions": "protein concentration: 200 nM; construct: GST-full length", "procedure,_shortened": "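Full-length yeast transcription factors or their DNA-binding domains, GST-tagged and expressed with PURExpress, were applied at about 100-200 nM to universal all-10-mer Agilent arrays. These arrays had been made double-stranded by primer extension on fresh or once-stripped slides. Detection used fluorescent anti-GST, normalisation used masliner, and E-scores for ungapped eight-base words pooled with reverse complements came from the Universal PBM Analysis Suite.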"}
{"sequence": "ATGTCTTC", "PBM E-score": -0.2}
{"sequence": "ATCCCCAC", "PBM E-score": -0.0104}
{"sequence": "ATTAAGGA", "PBM E-score": -0.0248}
{"sequence": "ATTCTTTG", "PBM E-score": 0.109}
{"sequence": "GCTGATGA", "PBM E-score": -0.171}
{"sequence": "AGCTGCGA", "PBM E-score": -0.102}
{"sequence": "GCCATTCA", "PBM E-score": 0.105}
{"sequence": "GACCGGAC", "PBM E-score": -0.0718}
{"sequence": "CACGAGTC", "PBM E-score": 0.00023}
{"sequence": "CTCTAATC", "PBM E-score": -0.192}
{"sequence": "ACCTTCGC", "PBM E-score": 0.211}
{"sequence": "CAGCGGAG", "PBM E-score": -0.279}
{"sequence": "CAACAGCA", "PBM E-score": -0.00694}
{"sequence": "CAAACGAG", "PBM E-score": 0.0176}
{"sequence": "ATATTGAA", "PBM E-score": 0.0228}
{"sequence": "AATCATAG", "PBM E-score": 0.0588}
{"sequence": "GTTCAGAA", "PBM E-score": 0.00591}
{"sequence": "AACATTCG", "PBM E-score": -0.109}
{"sequence": "AATTACCG", "PBM E-score": 0.223}
{"sequence": "AGTGGATG", "PBM E-score": 0.116}
{"sequence": "AACAAGAA", "PBM E-score": 0.178}
{"sequence": "TACCTGAA", "PBM E-score": 0.257}
{"sequence": "ACAGACCC", "PBM E-score": 0.204}
{"sequence": "AAAGCCCG", "PBM E-score": -0.212}
{"sequence": "AACTATCA", "PBM E-score": 0.134}
{"sequence": "GTATTACA", "PBM E-score": -0.0059}
{"sequence": "CTGCGCGC", "PBM E-score": -0.0505}
{"sequence": "CGGTGCCA", "PBM E-score": -0.276}
{"sequence": "AAAGGTGG", "PBM E-score": 0.158}
{"sequence": "ACGGCCTA", "PBM E-score": 0.0308}
{"sequence": "ACCTGAGC", "PBM E-score": 0.0875}
{"sequence": "ACGATTAA", "PBM E-score": 0.0622}
{"sequence": "ACTCAGAT", "PBM E-score": 0.0449}
{"sequence": "AGATGGCA", "PBM E-score": -0.151}
{"sequence": "TCCGCGCA", "PBM E-score": -0.0155}
{"sequence": "AGCGGTCA", "PBM E-score": 0.311}
{"sequence": "TCTATTCA", "PBM E-score": 0.0189}
{"sequence": "CATTCGGC", "PBM E-score": -0.169}
{"sequence": "GGCTGACA", "PBM E-score": -0.177}
{"sequence": "AATACAGA", "PBM E-score": 0.167}
{"sequence": "TACTTCTA", "PBM E-score": -0.00314}
{"sequence": "ACGAGAGG", "PBM E-score": -0.0582}
{"sequence": "CGTACATA", "PBM E-score": 0.0382}
{"sequence": "AAGCCGAG", "PBM E-score": -0.118}
{"sequence": "GCGAATCC", "PBM E-score": -0.0914}
{"sequence": "ACCCGACT", "PBM E-score": 0.13}
{"sequence": "GTTTTGTA", "PBM E-score": 0.275}
{"sequence": "GACGCGAC", "PBM E-score": -0.0898}
{"sequence": "CTCCCTTC", "PBM E-score": -0.269}
{"sequence": "CTCTTGAC", "PBM E-score": -0.00413}
{"sequence": "AACGGGTC", "PBM E-score": 0.151}
{"sequence": "AGCAAGAT", "PBM E-score": -0.153}
{"sequence": "CTAATCCA", "PBM E-score": -0.0467}
{"sequence": "CAGAACCG", "PBM E-score": 0.111}
{"sequence": "GAACTATC", "PBM E-score": -0.165}
{"sequence": "TAGCCCAA", "PBM E-score": -0.00536}
{"sequence": "CAACAAAC", "PBM E-score": 0.123}
{"sequence": "GTGCACAC", "PBM E-score": -0.159}
{"sequence": "ACACTCTG", "PBM E-score": 0.0251}
{"sequence": "ACTCTGCG", "PBM E-score": -0.0257}
{"sequence": "CCGCCACC", "PBM E-score": 0.017}
{"sequence": "ATAGCGCG", "PBM E-score": 0.0047}
{"sequence": "GCTTCTCC", "PBM E-score": -0.378}
{"sequence": "CTGGTACC", "PBM E-score": 0.286}
{"sequence": "TTCGCCAA", "PBM E-score": -0.133}
{"sequence": "CATCGGCG", "PBM E-score": -0.248}
{"sequence": "ACAGTGAC", "PBM E-score": 0.088}
{"sequence": "CGTCAATA", "PBM E-score": 0.0585}
{"sequence": "ATGCGGAC", "PBM E-score": -0.126}
{"sequence": "GGTACCAC", "PBM E-score": 0.362}
{"sequence": "ATTTGGCG", "PBM E-score": -0.00681}
{"sequence": "AGACTCGA", "PBM E-score": -0.108}
{"sequence": "CTCTGGAC", "PBM E-score": 0.11}
{"sequence": "CTCGGCTA", "PBM E-score": -0.211}
{"sequence": "GCATAAGA", "PBM E-score": 0.0335}
{"sequence": "ATAGTACC", "PBM E-score": 0.146}
{"sequence": "ATTGCCAG", "PBM E-score": -0.0236}
{"sequence": "AATACCAC", "PBM E-score": 0.0878}
{"sequence": "AAATTTTG", "PBM E-score": -0.0366}
{"sequence": "ACTGTCCT", "PBM E-score": -0.0589}
{"sequence": "AATTTCGG", "PBM E-score": 0.0226}
{"sequence": "AAGTCAGC", "PBM E-score": -0.081}
{"sequence": "AGCACTGC", "PBM E-score": -0.345}
{"sequence": "GCGCTAGA", "PBM E-score": -0.113}
{"sequence": "TAACTCTA", "PBM E-score": 0.0222}
{"sequence": "CAGAACAC", "PBM E-score": -0.00853}
